# In PMC12136788:
# This is one part of the list.
# T1: UNK ZnF1-6 (called full-length) (human, UniProt Q9C0B0 30-357)
# T1 sequence: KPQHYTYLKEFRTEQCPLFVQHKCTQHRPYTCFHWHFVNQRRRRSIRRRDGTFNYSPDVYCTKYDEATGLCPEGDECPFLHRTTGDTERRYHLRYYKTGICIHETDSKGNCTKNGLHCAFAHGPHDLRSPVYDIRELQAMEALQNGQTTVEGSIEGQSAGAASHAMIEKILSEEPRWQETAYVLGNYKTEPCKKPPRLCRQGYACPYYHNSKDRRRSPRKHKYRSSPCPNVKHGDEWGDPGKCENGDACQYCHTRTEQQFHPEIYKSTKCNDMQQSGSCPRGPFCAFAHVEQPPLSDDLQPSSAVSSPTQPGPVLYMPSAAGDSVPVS
# B1: chr2:27376893:27376994:+|3pUTR|ENSG00000115234|msi1|FALSE|unique (ssRNA)
# RNA: GGGAGUUCUACAGUCCGACGAUCGGGCUGGCUGCACAGAGGAUUGCCCCUUCUCUUUUCAGAGCUGGCCCUCGAUGCCAAAUUAGCAUUUAGUAUUUUGCACAAAGUCUAAGGGACCAUGGCUGCCUGCCUUGGGGAGGAACCCAACAGAGGAUUGAGCAUCA
# B2: chr6:52501983:52502084:-|3pUTR|ENSG00000065308|msi1|total|mutant (ssRNA)
# RNA: GGGAGUUCUACAGUCCGACGAUCGGCCGCCCUUGUUGAGUGUUCUUUGGAAUUGUCGUUUUUUGAGCACAACUACAGCAUUUCCGACUGCAUGAAACCAUGACUGACUGAGAGUCACUCUCUGGGCCGAUGACCGGCGCCUUUCAACAGAGGAUUGAGCAUCA
# B3: chr12:49796586:49796721:-|CDS|ENSG00000167566|msi1|FALSE|unique (ssRNA)
# RNA: GGGAGUUCUACAGUCCGACGAUCGAGGCCCACAGGCCAGGCUUCGGUGCUACCUCAGAGGGCCAGGGGCCCCUCCCCUUCCUUAGCAUGUUCAUGGGUGCUGGGGAUGCCCCACUGGGCUCUCGGCCUGGCCACCCCCAUUCCCAACAGAGGAUUGAGCAUCA
# B4: chr2:121605696:121605828:-|CDS|ENSG00000074054|unk|FALSE|unique (ssRNA)
# RNA: GGGAGUUCUACAGUCCGACGAUCGAUAGACUAUUUCUCAGACAAACAGAAGUCUGCUGACCUUGAGCAUGACCAGACCAUGUUAGAUAAACUUGUGGAUGGACUUGCUACCUCUUGGGUGAACUCUAGCAAUUACAAGGUAAGCAACAGAGGAUUGAGCAUCA
# B5: ENSG00000124766:be:win_3801|3pUTR|ENSG00000124766|bound_else_gene|NA|bound_elsewhere_windowed (ssRNA)
# RNA: GGGAGUUCUACAGUCCGACGAUCUGUUUAAUAUAACAUGACAGGCACUAGGACGUCUGCCUUUUUAAGGCAGUUCCGUUAAGGGUUUUUGUUUUUAAACUUUUUUUUGCCAUCCAUCCUGUGCAAUAUGCCGUGUAGAAUAUUCAACAGAGGAUUGAGCAUCA
# B6: chr17:18327447:18327548:+|3pUTR|ENSG00000176994|msi1|FALSE|unique (ssRNA)
# RNA: GGGAGUUCUACAGUCCGACGAUCGUCAACUCACAGAUUCUGCAGCAGCUGCUCCACCCACAAUAAAGCAAACGCCGACAGGCUAGACCCCAGAUUGCAGGGGCUGCCACCUACAAGGUGGGACCACAGGCUGCCUCACCGGGACAACAGAGGAUUGAGCAUCA
# Biological target: T1, UNK ZnF1-6 (called full-length)
# Test: nsRBNS (natural sequence RNA bind-n-seq); RBNS binding buffer (assumed for nsRBNS): 25 mM Tris pH 7.5, 150 mM KCl, 3 mM MgCl2, 0.01% Triton X-100, 500 ug/ml BSA, 20 U/ml SUPERase-In, 4 C; UNK is unkempt and MSI1 is Musashi-1; names of the RNAs are library labels; protein concentration not given here; high values mean tight binding
row,Binder,binding signal [enrichment R]
1,B1,1.7
2,B2,0.527
3,B3,0.706
4,B4,0.726
5,B5,0.544
6,B6,0.87
